# Variants at the floor of the assay are shown more often than the library holds them.
# B1: TPR 5TU (parent)
# chain: GGAUCUUCUCGAUCUAACAAAAAAGACAAAUCUGCCACAAAGCUUGAGAGCAUCUUCGGAUGCAGAGGCGGCAGCCUUCGGUGGCGCGAUAGCGCCAACGUUCUCAACUAUGACACGCAAAACGCGUGCUCCGUUGAAUGGAGUUUAUCAUG
# Variants of: B1
# Assay: polymerase ribozyme fitness, log enrichment relative to wild type (log ratio); higher = more active; in vitro selection for triplet polymerase activity
# In short: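 Libraries of mutants in each subunit of a heterodimeric triplet polymerase ribozyme were generated by PCR and transcribed. In triplicate, each went through one in vitro selection round: annealing with biotinylated primer, partner subunit and triplets; frozen incubation at −7 °C; gel excision of extended constructs; streptavidin-bead capture; RT-PCR. Fitness, taken from Illumina sequencing of input and output libraries, is the logarithm of a genotype's enrichment over wild-type enrichment, averaged across replicates with inverse-variance weights. The logarithm is base 2, and genotypes needed ≥10 input reads and ≥1 read per output to be kept.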
row,Variant,polymerase ribozyme fitness (log ratio)
1,A40G G48U C57U G84C C87A C114G G124C G133U,≤ -4.2
2,A41G G84A A89G C103G,-3.2
3,G42C A47C C93G G140C,≤ -4.2
4,G42A A49G C93A C95U C108G U146G,≤ -4.2
5,A41U G58A G74U C108A A120G G141A,≤ -4.2
6,A40C U55A C79U C118A,≤ -4.2
7,G42C C43U,≤ -4.2
8,A41C A91C C118A C125A A150U,≤ -4.2
9,A41C G67C G68A G88C G92A A107C,≤ -4.2
10,G42C G46C C85A A115G G133A A138G A150U,≤ -4.2
11,A41C G50U G74A C75G U77G C79A G88U C93U C108U A120U,≤ -4.2
12,A39U U101C A120U C132U U134A,≤ -4.2
13,G42A G84A,-3.95
14,A39U U44A C79G C132G U139A,≤ -4.2
15,A41U G42U A49C G68A,≤ -4.2
16,A40C A91C,≤ -4.2
17,A40G C43U A49U A121U,≤ -4.2
18,A40U U77G C87U A122G,≤ -4.2
19,A41G C57G G88C U90G A106G G133A,≤ -4.2
20,G42C C96U C99U,≤ -4.2
21,A40C C75G C85A G141U,≤ -4.2
22,A40C G68U G86A C103G,≤ -4.2
23,A40C U44G C63U C95U C103G A115G A142C,≤ -4.2
24,A41U G74A C103U C114U U134C,≤ -4.2

row,Variant,polymerase ribozyme fitness (log ratio)
1,A40C G94U C129G U139A G141U U146C,≤ -4.2
2,A41U G58C G124U G128U A147U U148G,≤ -4.2
3,A41C G88A A115U A138C,≤ -4.2
4,G42A A89U C99G C105A,≤ -4.2
5,A40G A49C G59A C75G A91C C149A,≤ -4.2
6,A40U G50C C85U,-2.29
7,A40G C69G G70U G83A A150U,≤ -4.2
8,G42A U77A G83U A122C,≤ -4.2
9,A41U G42U U61G C79G U90C A98G G140C G141A,≤ -4.2
10,A41U U55G G59A U77G G80A,≤ -4.2
11,G42C A52G C54G C87G A138G,≤ -4.2
12,A41C U53C G81C C114A A115U C123G,≤ -4.2
13,G42C G92C C132A U139A,≤ -4.2
14,G42A G46C G84U C103A U104G C123G G128C G133C G143C,≤ -4.2
15,A40G C75U A89C C95U C99A,≤ -4.2
16,G42C A60G G70A A91U C123A U134C,≤ -4.2
17,A41U U53A G88A U101G C108U G128C A142C,≤ -4.2
18,A41C C54G U55G C57A C79G A115C,≤ -4.2
19,A41G C95U A122G C149A,≤ -4.2
20,A41C U55A G58C A98U,-0.108
21,G42C C43G U56A G59U C85U C125A U127C,≤ -4.2
22,A40C U56A C69G A91U A110U G136A U148A,≤ -4.2
23,G42A U78A G80C G88C A91G G92A A106U C118U G126A,≤ -4.2
24,G42A G62U G65C U77C G84A C118A C125U,≤ -4.2

row,Variant,polymerase ribozyme fitness (log ratio)
1,A41G U78C C116G,0.0342
2,A40C G67C G68A C72G C87G G94C A107U A115U U139G,≤ -4.2
3,G42A G59A G68A A89G C103G U144G,≤ -4.2
4,A41U A66U,≤ -4.2
5,A40C G141A,0.793
6,A41C A49C G65C C93A G126C,≤ -4.2
7,A41C U82C,-1.14
8,A40C G92A C99U C105A C129U,≤ -4.2
9,A41C U53A C76U,-1.65
10,A41C A52C C103G U111A U146C,≤ -4.2
11,G42A G59C G80U U90G,≤ -4.2
12,A40U C69A G143C,-2.79
13,A40C G50C C79U G81C C118U,≤ -4.2
14,A40G U56G G80C C87A,≤ -4.2
15,A39U U61C C96A,-3.93
16,A41C G42C C93U G94U A107U A110C G124U G136C A137U C149U,≤ -4.2
17,G42A A52G U61G G86A C114A,-3.88
18,A40G A47G U144G,-2.26
19,A40U C87U C103G A115U C125U G133C,≤ -4.2
20,A41U A52U,-2.47
21,A41U A52C,-2.05
22,A40C A52U G68C C85A G128C,≤ -4.2
23,A41U U61A G68U A107C U145G,≤ -4.2
24,A39U U102A G133C,≤ -4.2

row,Variant,polymerase ribozyme fitness (log ratio)
1,G42A U78G C116A C125G,≤ -4.2
2,A40C C54U G71A A89U C114U G117A,≤ -4.2
3,G42A A110U C149U,≤ -4.2
4,A40C G140U,-3.39
5,A41C C72G A106G G143C U151G,≤ -4.2
6,G42C G58C A60C U61A A120U,≤ -4.2
7,A40U C99G G126A C149G,≤ -4.2
8,A40U A60C,-1.31
9,A40C U44G U53A C87G A107U A121U G124C U130A G143A,≤ -4.2
10,A40U C96U A110C A150U,≤ -4.2
11,A40U A89C C114U,-2.95
12,G42A A49C A97U A106G C123G,≤ -4.2
13,A39U U55A G83U C95G A115C C149G,≤ -4.2
14,A41U C63G C85A G152U,≤ -4.2
15,G42C G62A C96A U144A U151G,≤ -4.2
16,A40C C99G U127A U139G G143A U148C,≤ -4.2
17,A40U G84A,-0.341
18,A39U U44C U53A G62U G86A,≤ -4.2
19,G42A C72U C79U G88C,≤ -4.2
20,G42C C87G A113C G133A,≤ -4.2
21,A40U G94C C108G,≤ -4.2
22,A40U C85A,-1.44
23,A40U C85G,-1.32
24,A41G G83A U90G G136U,≤ -4.2

row,Variant,polymerase ribozyme fitness (log ratio)
1,A39U U44G A60U C75U C93U C95G C149A U151G,≤ -4.2
2,A41C C75U C87A U148A,≤ -4.2
3,A40U A64C G84A G94C A97G G141C U145G C149A,≤ -4.2
4,A41C U44G U82A G84C U102G,≤ -4.2
5,A41C A49U U53A A60C G88U A122U U134A,≤ -4.2
6,A41U G83C A110G G126A,≤ -4.2
7,G42C G59A C96U A122U U146C,≤ -4.2
8,A41C A60G C75A A138U G141U U146C U148C,≤ -4.2
9,G42C A47C U53A U82C G84A A122G A138U G143C,≤ -4.2
10,A41G G74C C116G,≤ -4.2
11,A40U C125U G128C,≤ -4.2
12,A40G U55A G143C,≤ -4.2
13,A41C C116G,-0.175
14,A40G U44C G46U C85U C93A U127A U148C,≤ -4.2
15,A41U C57G A91G C99A A115U,≤ -4.2
16,A40U A52C U82A C95A U144G U146G,≤ -4.2
17,A40C A97C,1.5
18,A40C A97U,-0.185
19,A40U G68A,-4.03
20,A40G A60G U61C G84A,-3.52
21,G42A C87G,≤ -4.2
22,A41C C57A C87U C114G,-3.91
23,A40C A49C G88C G117A G141U U146A A150C,≤ -4.2
24,A40G U55A C85U A106C,≤ -4.2

row,Variant,polymerase ribozyme fitness (log ratio)
1,G42A C57G A73U C75A G86U A89C,≤ -4.2
2,A41C U53A G58A C63U G94A A107G U146A,≤ -4.2
3,A40G U134G,≤ -4.2
4,A41U G58C U78G G81A C103A C132G A147C,≤ -4.2
5,A40C G83C,0.449
6,A41C C51A G68U C69A G84U A106U,≤ -4.2
7,G42A C63G,≤ -4.2
8,A40U A47U A49C G152U,≤ -4.2
9,A40C A49C C54A C96U C114U G126A,≤ -4.2
10,A40C A49C U77C,≤ -4.2
11,G42A C75G C87A,≤ -4.2
12,A40C G50U U148A,≤ -4.2
13,G42C C95A U135G,≤ -4.2
14,A41G U61A A89U C93G A97U A106G U134G,≤ -4.2
15,A41C U55A A97G,-0.161
16,G42A U45A A73G C85U C114U,≤ -4.2
17,A41C C93G U144C,-3.7
18,A41U C72G C96U,≤ -4.2
19,A41U A52G U55A C69A G86U,-3.96
20,A40G G81C C132U A138C,≤ -4.2
21,G42A G92U U104G C108A A115C,≤ -4.2
22,A40G C57U C87G A107U G126A,≤ -4.2
23,A41C A52U A60U G88A C131A U134C G140A,≤ -4.2
24,A41G G42A G48C C93A A106C U109C A137C,≤ -4.2

row,Variant,polymerase ribozyme fitness (log ratio)
1,G42C C76U C99G A122G G141C,≤ -4.2
2,A40U C87U A89G,-3.2
3,G42A C93G G100U G140U,≤ -4.2
4,A41U C54U C63U U82A C95G A115U,≤ -4.2
5,A41C G86U G133A U146C,≤ -4.2
6,A40G U53A A60U A91U G117A,≤ -4.2
7,A41C C87G,≤ -4.2
8,A40G G62A G86U C95U U134C,≤ -4.2
9,A40U U55A A66G U151G,≤ -4.2
10,A40C A60G C76G C85U G124C,≤ -4.2
11,A41U A47C A60U C75U C76G A91G G94A A121G G141C,≤ -4.2
12,A41C U53A U78G G84U G126U,≤ -4.2
13,G42A A49C C69G A137U,≤ -4.2
14,A39U U77G G124C U135G U146A,≤ -4.2
15,A40C C116G G117U C129U G141C,≤ -4.2
16,A40C A41G G65A C69U C85U U102C A106G C129G U148G,≤ -4.2
17,A41C U45G A91G U148G,≤ -4.2
18,A40U U53A,-0.83
19,A40C A49U U56A C57A G88C U135A A137U,≤ -4.2
20,A41C U61A C76A A91U C99A A110U A150C,≤ -4.2
21,A41U C43A G62A A64C C79U G80A G84U G124C U139G,≤ -4.2
22,A40G G48A C87U C96A G141U A147G,≤ -4.2
23,A41G C75G,-2.98
